PubChem BioAssay AID624296 (National Center for Advancing Translational Sciences (NCATS), 2012)
About 9,900 (2.8%) of roughly 350,000 compounds were called active. The inconclusive results got no clear call from the source; some entries with a clear call stand among them for comparison. Calls come from the whole dose curve; as a rule, active = well fitted activation curve with a large enough effect; inconclusive = small, poorly fitted or top-dose-only effect; inactive = no such curve, though single readings can be large or run the other way. No potency is given beside an inconclusive call; the fits are too rough.
Potency is the fitted concentration of half-maximal effect; tags give direction and shape of the fitted curve.

Test: A quantitative high throughput screen for small molecules that induce DNA re-replication in MCF 10a normal breast cells. For activity, positive = re-replication: % of control where 0% means no effect. Note: nearly all actives have a fitted effect of over 50% in size.
Settings: MCF 10A DNA re-replication, Hoechst nuclear intensity, 48 h; activity, positive = re-replication: at 46.1 µM (top of the series)
In the case of `Cc1ccc(-c2nnc(NC3CCCCC3)c3ccccc23)cc1S(=O)(=O)N1CCN(C)CC1`, the “activity, positive = re-replication” value is reported as inactive: 14.1%.
With `CCCN(CCC)C(=O)CSc1nc2ccccc2c(=O)n1C1CCCC1` the Potency was inconclusive [activator, single point].
For `CC(C)(C)C(=O)CN1C2=NCCCN2c2ccccc21`, the “activity, positive = re-replication” value was inactive: 41.2%.
For `COc1ccc(/C=C2/SC(=O)N(CCC(=O)Nc3ccccc3C(=O)O)C2=S)cc1`, the “activity, positive = re-replication” value was inactive: 6.5%.
In the case of `Cc1cc(-n2cccn2)ccc1CN1CCN(C2CCCC2)C(CCO)C1` (stereo not given), the Potency is reported as inconclusive [activator, partial curve, poor fit].
In the case of `CSc1cccc(CN2CCCC(C(=O)Nc3cccc(-n4cccn4)c3)C2)c1` (stereo not given), the Potency is reported as inconclusive [activator, single point].
For `COc1ccc(N(C(=O)CNC(=O)c2ccco2)C(C(=O)NC2CCCCC2)c2ccncc2)cc1` (stereo not given), the “activity, positive = re-replication” value was inactive: -7.06%.
For `Cc1cc(=O)oc2cc(OCC(=O)OCC(=O)N3CCC(C)CC3)ccc12`, the “activity, positive = re-replication” value was inactive: -42.5%.
For `COc1ccccc1C(=O)Nc1ccnn1C1CCN(Cc2csc(C(C)=O)c2)CC1`, the “activity, positive = re-replication” value was inactive: -1.89%.
With `COCCNS(=O)(=O)c1ccc(OCC(=O)OC)c(Cl)c1` the “activity, positive = re-replication” value was inactive: 0.0076%.
With `CC1CCC(C(C)C)C(OC(=O)COC(=O)c2ccc(=O)[nH]c2)C1` (stereo not given) the Potency was inconclusive [activator, single point].
In the case of `CC(=O)c1c(O)c(C)c(-c2ccccc2)n(-c2ccccc2)c1=O`, the Potency is reported as inconclusive [activator, partial curve].
In the case of `COC(=O)C1(C)NC(c2ccccc2C)C2C(=O)N(c3ccc(F)cc3)C(=O)C21` (stereo not given), the Potency is reported as inconclusive [activator, partial curve, poor fit].
In the case of `COc1ccc(N2CCN(C(=O)c3ccc(CS(=O)c4cccc(C)c4)o3)CC2)cc1` (stereo not given), the Potency is reported as inconclusive [activator, partial curve, poor fit].
With `CC1CN(CCCCOc2cccc(Oc3ccccc3)c2)CC(C)O1` (stereo not given) the Potency was inconclusive [activator, single point].
In the case of `BrC(=C\c1ccccc1)/C=N/Nc1nc(N2CCOCC2)nc(N2CCOCC2)n1`, the Potency is reported as inconclusive [activator, single point].
In the case of `COC(=O)c1ccc(NC(=O)CNC(=O)C2CCCCC2)cc1`, the Potency is reported as inconclusive [activator, partial curve, poor fit].
For `O=C(OCCCc1cc2ccccc2c(=O)o1)c1ccc2c(c1)OCO2`, the “activity, positive = re-replication” value was inactive: 23.3%.
With `O=C(CSc1nc(-c2ccco2)cc(C(F)(F)F)n1)Nc1cccnc1` the Potency was inconclusive [activator, single point].
In the case of `O=C(NCCC1=CCCCC1)c1ccc([N+](=O)[O-])cc1`, the “activity, positive = re-replication” value is reported as inactive: 0.596%.
For `N#Cc1c(/N=C/c2cc3ccccc3s2)sc2c1CCC2`, the “activity, positive = re-replication” value was inactive: 7.25%.
For `O=c1oc2ccccc2c(O)c1Cc1cc(Cl)c2cccnc2c1O`, the Potency was active: 5.8 µM.
For `CCOc1ccc(C(C)C)cc1S(=O)(=O)Nc1ccc(Cl)cn1`, the “activity, positive = re-replication” value was inactive: 0.967%.
For `CN(C(=O)c1ccc(OC2CCN(CCc3ccccc3)CC2)cc1)C1CCCCC1`, the Potency was inconclusive [activator, single point].
For `CC(C)(C)c1cc(C(=O)NNC(=O)Nc2cccc(Cl)c2)n(Cc2ccccc2)n1`, the Potency was inconclusive [activator, partial curve, poor fit].
With `COc1ccccc1CN(Cc1cc2cc3c(cc2[nH]c1=O)OCCO3)Cc1nnnn1Cc1ccco1` the “activity, positive = re-replication” value was inactive: 6.75%.
With `Cc1cccc(-c2nc(CS(=O)CC(=O)NCc3ccco3)c(C)o2)c1` (stereo not given) the “activity, positive = re-replication” value was inactive: 0.847%.
For `C(=N\Nc1nc(N2CCCC2)nc(N2CCCC2)n1)/c1cccnc1`, the “activity, positive = re-replication” value was inactive: 3.29%.
For `Cc1cc(N2C(=O)C3C4c5ccccc5C(c5ccccc54)C3C2=O)no1` (stereo not given), the Potency was inconclusive [activator, single point].
With `Cc1ccc(-c2nnc3c(C(F)(F)F)nc4ccccc4n23)cc1` the Potency was inconclusive [activator, partial curve, poor fit].
For `Cc1cc(C(=O)N/N=C/c2c3ccccc3cc3ccccc23)n[nH]1`, the Potency was active: 20.6 µM.
In the case of `O=C(NCCN1CCN(Cc2ccccc2)CC1)C1c2ccccc2C(=O)N2CCc3ccccc3C12` (stereo not given), the “activity, positive = re-replication” value is reported as inactive: -2.65%.
With `Cn1c(Cc2cccs2)nnc1SCC(=O)Nc1ccc(F)cc1F` the “activity, positive = re-replication” value was inactive: -3.96%.
In the case of `COC(=O)c1ccc(CSc2nccn2C)cc1`, the “activity, positive = re-replication” value is reported as inactive: 7.71%.
In the case of `Cc1nc(SCc2nc3ccc(F)cc3[nH]2)c2oc3ccccc3c2n1`, the Potency is reported as inconclusive [activator, partial curve, poor fit].
For `O=C(NNC(=S)NC(=O)c1ccco1)c1ccc(F)cc1`, the “activity, positive = re-replication” value was inactive: 0.834%.
With `CC(C)c1ccc(O)c(NC(=S)NC(=O)c2ccc3c(c2)OCO3)c1` the Potency was inconclusive [activator, single point].
For `CC(C)CC(c1nnnn1C(C)C)N1CCN(c2cccc(Cl)c2)CC1` (stereo not given), the Potency was inconclusive [activator, single point].
In the case of `CN(C)N1C(N)=C(C#N)C(c2cccc3ccccc23)C2=C1CC(c1ccccc1)CC2=O` (stereo not given), the Potency is reported as active: 14.6 µM.
For `CCSc1nnc(-c2cccc(S(=O)(=O)N(CC)CC)c2)n1Cc1ccccc1`, the Potency was inconclusive [activator, single point].
In the case of `COc1ccc(N2CC(=O)N(c3ccccc3)C2=S)cc1`, the Potency is reported as inconclusive [activator, single point].
For `Cc1cc(C)c(NC(=O)CSCc2c(C)noc2C)c(Cl)c1`, the Potency was inconclusive [activator, partial curve, poor fit].
For `CCC(O)(CC)C(=O)NN(C(=O)Nc1csc2c1CCCC2)c1ccccc1`, the Potency was inconclusive [activator, partial curve].
With `COc1cc2nc(C3CCC3)nc(N3CCN(c4ccccc4OC)CC3)c2cc1OC` the Potency was inconclusive [activator, partial curve, poor fit].
For `COCCCNC(=O)C[C@H]1C[C@H](C(=O)N2CCCCC2)[C@@]2(CCc3ccccc3)c3[nH]c4cc(CCC(=O)N(C)C)ccc4c3CCN2C1=O`, the Potency was inconclusive [activator, full curve, poor fit].
In the case of `Clc1ccc(-c2noc(CSc3nnc(-c4ccncc4)n3-c3ccccc3)n2)cc1`, the Potency is reported as inconclusive [activator, single point].
With `O=S1(=O)CCC(NC(=S)SCCOc2ccccc2)C1` (stereo not given) the “activity, positive = re-replication” value was inactive: -2.02%.
For `O=C(CSc1nnc(-c2ccc(S(=O)(=O)N3CCOCC3)cc2)o1)c1ccccc1F`, the Potency was inconclusive [activator, full curve].
For `C=CCN1C(=CCO)[C@H]2C[C@H]3[C@@H]1CC[C@@]31c3ccccc3N3C=C4[C@@H]5N(/C=C/2[C@H]31)c1ccccc1[C@]51CC[C@H]2[C@H]1C[C@@H]4/C(=C/CO)N2CC=C`, the “activity, positive = re-replication” value was inactive: -3.8% [at 20.6 µM].
With `OC(COc1ccc(CN2CCCCO2)cc1)CN1CCCCC1` (stereo not given) the Potency was inconclusive [activator, full curve, poor fit].
For `CCC(=O)n1nc(-c2ccco2)nc1SCc1ccccc1`, the Potency was inconclusive [activator, partial curve, poor fit].
For `Cc1ccc(SCCNC(=O)CN2C(=O)c3ccccc3S2(=O)=O)cc1`, the Potency was inconclusive [activator, single point].
In the case of `COc1ccc(S(=O)(=O)N2CCC(C(=O)NCCC(=O)Nc3cccc(Cl)c3)CC2)cc1`, the Potency is reported as active: 20.6 µM.
With `CCC(C)Sc1ccc([C@@H]2[C@@H]3C(=O)N(CC)C(=O)[C@@H]3[C@]3(C(=O)OC)CCCCN23)cc1` (stereo not given in full) the “activity, positive = re-replication” value was inactive: -8.42%.
With `CCOC(=O)c1c(C)[nH]c(C(=O)COC(=O)CNS(=O)(=O)c2ccc(C)cc2)c1C` the “activity, positive = re-replication” value was inactive: -1.75%.
For `COC(=O)C[C@H]1c2cc(C(F)(F)F)ccc2S(=O)(=O)N1c1ccc(N(C)C)cc1`, the Potency was inconclusive [activator, single point].
In the case of `CN(C(=O)c1cccc(NC(=O)Cc2ccc(NC(=O)C3CCCN(C(=O)C4CCC4)C3)cc2)c1)C1CCCCC1` (stereo not given), the Potency is reported as inconclusive [activator, single point].
In the case of `COc1ccc(-c2sc3ccc(N4CCOCC4)cc3c2C#CCO)cc1`, the Potency is reported as active: 11.6 µM.
In the case of `Fc1ccc(CN2CCN(c3ncccn3)CC2)cc1`, the Potency is reported as inconclusive [activator, full curve, poor fit].
For `CC1=CC(=O)C=C(C)C1=NOc1ccc([N+](=O)[O-])cc1`, the Potency was inconclusive [activator, single point].
With `O=C(N/C(=C/c1ccc(F)cc1)C(=O)N1CCOCC1)c1ccccc1` the Potency was inconclusive [activator, single point].
In the case of `Cc1ccn2cc(C(=O)Nc3nnc(C)s3)nc2c1`, the Potency is reported as inconclusive [activator, single point].
In the case of `COc1ccc(C(=O)NC(=S)NNC(=O)c2ccccc2O)cc1`, the Potency is reported as active: 23.1 µM.
For `CC1CCN(C(=O)CS(=O)(=O)Cc2ccccc2)CC1`, the “activity, positive = re-replication” value was inactive: -0.508%.
For `CSc1nc(N)nc(SCC(=O)C(C)(C)C)c1C#N`, the Potency was inconclusive [activator, partial curve, poor fit].
For `CC1=CC(C)(C)Nc2ccc(OS(=O)(=O)c3ccc(C)cc3)cc21`, the Potency was inconclusive [activator, single point].
For `COc1ccc(C2=NN(C)C(=NCc3ccccc3)SC2)cc1`, the “activity, positive = re-replication” value was inactive: 27%.
With `Cn1ncc(Br)c1C(=O)NC1CCCCCC1` the “activity, positive = re-replication” value was inactive: 8.6%.
With `C=CCNC(=O)CN(c1ccc(F)c(Cl)c1)S(C)(=O)=O` the Potency was inconclusive [activator, single point].
In the case of `COc1ccccc1NC(=O)c1oc2ccccc2c1NC(=O)C1CC1`, the Potency is reported as inconclusive [activator, single point].
